Measurements: PubChem BioAssay AID2101 (National Center for Advancing Translational Sciences (NCATS), 2009)
Among all 330,000 compounds or so, about 300 (0.091%) were called active. The inconclusive results got no clear call from the source; some entries with a clear call stand among them for comparison. The call rests on the fitted dose curve; in most records, active means well fitted inhibition curve with a large enough effect; inconclusive means small, poorly fitted or top-dose-only effect, or effect the other way, or another doubt; inactive means no such curve, though single readings can be large or run the other way. Potencies of inconclusive entries are left out as doubtful fits.

Each compound was assayed against Lysosomal acid glucosylceramidase (Homo sapiens) (UniProt P04062) (assay: qHTS Assay for Inhibitors and Activators of N370S glucocerebrosidase as a Potential Chaperone Treatment of Gaucher Disease). Details: N370S GC spleen homogenate, 4MU-glucoside fluorescence; activity change, negative = inhibition: at 59.4 µM (top of the series) unless noted.
Potency means the concentration at half of the fitted maximal effect.
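Wherever activity change, negative = inhibition is given: 0% = full enzyme activity and -100% = no enzyme basal.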

Compound | Potency | activity change, negative = inhibition
O=C1NCCCC1C(=O)N/N=C/c1ccccc1O (configuration not stated) | inconclusive [activator, single point] | –
O=C(Nc1ccccc1N1CCCC1)c1ccccc1F | – | inactive: 19.9%
COc1cccc(-c2coc3ccc(Br)cc3c2=O)c1 | – | inactive: 3.6%
Cc1cc(-c2nc3cccnc3s2)ccc1NS(=O)(=O)c1ccc2c(c1)OCCO2 | inconclusive [activator, partial curve] | –
Cc1ccc(N2CC(C(=O)NC3CC3)CC2=O)cc1 (configuration not stated) | inconclusive [activator, single point] | –
CCC(=O)N(CCC(c1ccccc1)c1ccco1)Cc1cccs1 (configuration not stated) | inconclusive [activator, single point] | –
c1ccc2c(N3CCOCC3)nc(N3CCOCC3)nc2c1 | inconclusive [activator, partial curve] | –
CC(C)N1CCc2c(sc(NC(=O)c3ccc(C(=O)c4ccccc4)cc3)c2C(N)=O)C1 | inconclusive [inhibitor, partial curve, poor fit] | –
COC(=O)c1[nH]c2ccc(C)cc2c1NC(=O)CN1CCCc2ccccc21 | – | inconclusive: 33.6% [activator]
CNC(=S)Nc1ccc([N+](=O)[O-])cc1C | inconclusive [inhibitor, full curve, poor fit] | –
Cc1cccc(-c2nnc(SCC(=O)NC3CCCC3)o2)c1 | inconclusive [inhibitor, full curve, poor fit] | –
Cn1cc([N+](=O)[O-])c(C(=O)Nc2ccc3nc(-c4ccccc4)[nH]c3c2)n1 | – | inactive: -6.06%
O=C(NCc1ccco1)c1ccc(-c2cccc(Cl)c2)o1 | – | inconclusive: 27.3% [activator]
CCn1c2ccccc2c2cc(CN3CCN(C(=O)c4ccco4)CC3)ccc21 | inconclusive [inhibitor, single point] | –
Nc1nc2c(-c3ccc(Br)cc3)nnn2c2ccccc12 | inconclusive [activator, partial curve] | –
C[C@@H]1CC2(OC(O)[C@]3(C)O[C@H]23)O[C@H]2C[C@@]3(C)[C@@H]4CC[C@H]5C(C)(C)C(O[C@@H]6OC[C@@H](O)[C@H](O)[C@H]6O)CC[C@@]56C[C@@]46CC[C@]3(C)[C@@H]12 (some centres not stated) | inconclusive [inhibitor, partial curve] | –
COc1cccc(NC(=O)CSc2nc3ccccc3cc2Cc2ccccc2)c1 | inconclusive [activator, full curve] | –
O=C(O)c1ccc(CN2C(=O)CSC2=S)cc1 | – | inactive: 1.97%
Cc1cc(-c2ccc(C(=O)O)s2)cnc1N | inconclusive [activator, partial curve] | –
COCCN(C(=O)COC(=O)c1cc2ccccc2cc1OC)c1c(N)n(Cc2ccccc2)c(=O)[nH]c1=O | inconclusive [activator, single point] | –
Cc1ccc(C(=O)Nc2sc3c(c2C(=O)O)CCCC3)o1 | – | inactive: 3.32%

Compound | Potency | activity change, negative = inhibition
CC(=O)c1ccc(-c2ccc(C(=O)NC3CCCCCC3)o2)cc1 | inconclusive [activator, single point] | –
COc1ccc(Cl)cc1C(=O)NCc1ccc2c(c1)OCO2 | inconclusive [activator, single point] | –
CCCCOC(=O)Cn1c(=O)c2c(nc(Br)n2Cc2ccccc2)n(C)c1=O | inconclusive [activator, partial curve] | –
COC(=O)C1=C(C(=O)OC)[C@@H]2N(C)c3ccccc3[C@@]23C[C@@H](C(=O)OC)N(S(=O)(=O)c2ccc4c(c2)OCCN4C)C3=N1 | – | inactive: 9.68% [at 12.8 µM]
C=CCN1CN(CCc2ccccc2)CNC1=S | – | inconclusive: 31.7% [activator]
Cc1nc2c(-c3ccc(F)cc3)cnn2c(N)c1-c1ccccc1 | inconclusive [activator, partial curve] | –
N#CCc1ccc(NC(=O)/C=C/c2ccc([N+](=O)[O-])o2)cc1 | – | inactive: -1.93%
CCN(Cc1ccccc1)S(=O)(=O)c1ccc(C(=O)N(CCCN(C)C)c2nc3cc4c(cc3s2)OCCO4)cc1 | inconclusive [inhibitor, partial curve] | –
Clc1ccc(Cn2ncc3c(N4CCCCC4)ncnc32)cc1 | inconclusive [activator, partial curve] | –
CSc1ccc(S(=O)(=O)N2CCC(C(=O)NCCN3CCOCC3)CC2)cc1 | inconclusive [inhibitor, single point] | –
Cc1ccc(Nc2nc(N)nc(CN3CCN(c4ccccc4F)CC3)n2)cc1 | inconclusive [inhibitor, partial curve, poor fit] | –
CCCCCCCCCCCCCCCC[N+](C)(C)CCN(Cc1ccc(OC)cc1)c1ncccn1 | inconclusive [inhibitor, single point] | –
CC(=O)N1N=C(c2ccccc2)OC1c1cccnc1 (configuration not stated) | inconclusive [inhibitor, single point] | –
O=C(NCCCN1CCN(c2ccccc2F)CC1)Nc1ccc(F)cc1 | inconclusive [inhibitor, single point] | –
COc1cccc(NC(=O)CSc2nnc(-c3cccs3)n2C)c1 | – | inactive: -0.607%
Oc1ccc(N2CCN(Cc3c(-c4ccccc4)nc4ccccn34)CC2)cc1 | inconclusive [inhibitor, partial curve] | –
Cc1cc(=O)oc2c3c(cc(OCC(=O)N[C@@H](Cc4ccccc4)C(=O)O)c12)OC(C)(C)CC3 | inconclusive [activator, partial curve] | –
C/C(=C\CO)CCO | – | inactive: -2.95%
CCC(=O)Nc1c(OC(=O)CC)ccc2c(C)cc(=O)oc12 | inconclusive [activator, partial curve] | –
CN(N=Nc1ccc([N+](=O)[O-])cc1)c1ccccc1 | – | inactive: 2.15%
Cc1ccc(NC(=O)Nc2cccnc2)cc1NC(=O)Nc1cccnc1 | inconclusive [activator, partial curve] | –
